Source: paper PMC4336329 (PLoS ONE, 2015)
In all, about 310,000 compounds went through this assay and about 14,000 (4.5%) showed an effect of 50% or more. The effect is printed as a negative number. The list shows a part of the results.

target: human ether-à-go-go-related gene (hERG) potassium channel (human, UniProt Q12809); assay: primary screen, population patch clamp on CHO cells stably expressing hERG
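Also: peak tail current of the secondary pulse compared with the same well before compound.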

human ether-à-go-go-related gene (hERG) potassium channel, sequence (Q12809 whole entry, looked up): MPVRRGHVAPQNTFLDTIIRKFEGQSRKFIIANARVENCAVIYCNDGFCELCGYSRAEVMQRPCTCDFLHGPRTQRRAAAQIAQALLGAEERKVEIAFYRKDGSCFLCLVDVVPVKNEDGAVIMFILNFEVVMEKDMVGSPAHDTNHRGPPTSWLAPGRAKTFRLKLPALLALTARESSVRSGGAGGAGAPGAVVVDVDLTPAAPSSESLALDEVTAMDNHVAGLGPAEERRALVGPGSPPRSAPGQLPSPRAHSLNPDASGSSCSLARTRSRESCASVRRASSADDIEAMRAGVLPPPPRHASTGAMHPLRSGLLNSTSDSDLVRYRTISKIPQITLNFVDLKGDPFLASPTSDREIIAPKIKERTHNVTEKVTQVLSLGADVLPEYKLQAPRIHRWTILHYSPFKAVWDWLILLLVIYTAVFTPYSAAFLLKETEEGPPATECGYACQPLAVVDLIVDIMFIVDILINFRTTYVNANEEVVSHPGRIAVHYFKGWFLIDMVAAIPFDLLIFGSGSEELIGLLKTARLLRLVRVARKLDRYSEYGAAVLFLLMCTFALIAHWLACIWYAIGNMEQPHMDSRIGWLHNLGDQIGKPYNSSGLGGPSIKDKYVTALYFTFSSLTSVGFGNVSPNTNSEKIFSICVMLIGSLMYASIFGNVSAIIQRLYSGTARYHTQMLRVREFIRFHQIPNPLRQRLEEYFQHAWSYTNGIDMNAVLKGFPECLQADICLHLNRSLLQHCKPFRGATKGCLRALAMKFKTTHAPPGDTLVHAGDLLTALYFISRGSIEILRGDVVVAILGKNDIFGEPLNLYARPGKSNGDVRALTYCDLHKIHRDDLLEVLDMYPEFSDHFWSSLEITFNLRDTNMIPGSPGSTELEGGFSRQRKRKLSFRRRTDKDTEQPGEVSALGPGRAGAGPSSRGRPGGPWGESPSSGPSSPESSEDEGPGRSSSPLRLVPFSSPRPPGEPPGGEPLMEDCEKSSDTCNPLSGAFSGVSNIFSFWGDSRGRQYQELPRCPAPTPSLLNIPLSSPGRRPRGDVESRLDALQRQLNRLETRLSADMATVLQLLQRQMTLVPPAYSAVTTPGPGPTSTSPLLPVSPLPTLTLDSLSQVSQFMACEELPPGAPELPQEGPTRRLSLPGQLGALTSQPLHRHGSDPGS

SMILES	hERG current change (%, negative = inhibition) at 10uM [%]
O=C(NCC(c1ccco1)N1CCCCC1)C(c1ccccc1)c1ccccc1 (stereo not drawn)	-29.6
COc1ccc(CCNC(=O)C2CCN(S(=O)(=O)N3CCCCC3)CC2)cc1OC	-6.03
COC(=O)c1sccc1NC(=O)CSCC(=O)O	15.4
CCOC1OC(=O)C(Cl)=C1Nc1cc(C)ccc1C (stereo not drawn)	16.6
O=C(CN(C(=O)c1csnn1)c1ccc(F)c(Cl)c1)NC1CCCC1	-5.01
CCCc1cc(=O)oc2cc3occ(C)c3cc12	-0.245
C[C@H](NC(=O)[C@@H]1CSC2c3ccccc3C(=O)N21)C(=O)NCCc1ccc(F)cc1 (stereo partly drawn)	-9.71
Cc1cc(C)n2nc(SCC(=O)N(CCC#N)c3ccccc3F)nc2n1	7.84
O=C(Cc1ccccc1)NCCc1cnc[nH]1	17.4
CCN(CC)S(=O)(=O)c1cccc(-c2n[nH]c(=S)n2Cc2ccccc2)c1	-18.3
O=C(NC1(C(F)(F)F)N=C2SCCN2C1=O)c1ccco1 (stereo not drawn)	2.81
Cc1cccc(NC(=O)Nc2ccc3c(c2)OCO3)n1	12.6
O=C(O)CC12C[C@H]3C[C@@H](C1)CC(n1ncc(N4CCN(c5ccccc5)CC4)c(Cl)c1=O)(C3)C2	6.36
CCOC(=O)c1c(NC(=O)Cc2ccccc2)sc2c1CCN(C)C2.Cl	-53
CN(C(=O)CSc1nnc(COc2ccccc2F)n1N)C1CCCCC1	-7.7
COc1ccc(C)cc1NS(=O)(=O)c1ccc2c(c1)CCN2C(C)=O	-17.2
O=C(O)c1ccccc1C(=O)Nc1ccc(S(=O)(=O)Nc2ccc(F)cc2)cc1	21.4
Br.CCOC(=O)Cn1c(=N)n(Cc2ccccc2)c2ccccc21	-34.6
COc1ccccc1-n1c(/C=C/c2ccc(O)cc2)nc2ccccc2c1=O	16.5

SMILES	hERG current change (%, negative = inhibition) at 10uM [%]
COc1ccc(OC)c(NC(=O)C2C3C=CC(C3)C2C(=O)NCc2cccnc2)c1 (stereo not drawn)	-0.666
COCCn1c(SCC(=O)NCc2ccco2)nc2cccnc21	14.8
CN1CCN(c2sc(S(C)(=O)=O)nc2S(=O)(=O)c2ccc(Cl)cc2)CC1	-25.9
CC(C)CC(=O)Nc1ccc2c(c1)OCO2	19.7
Cc1cccc(C)c1Nc1nnc(SCC(=O)Nc2ncc(C(F)(F)F)cc2Cl)s1	-16.8
Cc1cc(Cl)c(OCCCSc2nc(C)cc(=O)[nH]2)c(Br)c1	-10.3
Cl.NS(=O)(=O)c1ccc(CCNCc2cc(Br)ccc2OCc2ccccc2F)cc1	-75.9
C=CCc1ccccc1OCC(O)CNC(=O)c1ccccc1C(=O)O (stereo not drawn)	13.6
NS(=O)(=O)c1ccc2nc(NC(=O)C3CCCO3)sc2c1 (stereo not drawn)	10.1
CCN(CC)S(=O)(=O)c1ccc(N2CC(C(=O)NCCC3=CCCCC3)CC2=O)cc1 (stereo not drawn)	-0.538
Cc1ccc(C(=O)N2CCOCC2)cc1[N+](=O)[O-]	18.8
CCOc1ccc(NC(=O)CCN2CCN(S(=O)(=O)c3cc(Cl)ccc3OC)CC2)cc1	-46.1
C/C(Cc1ccccc1)=N/NC(=O)CCCC(=O)N/N=C(/C)Cc1ccccc1	18.1
COc1ccc(-c2ccc3ccccc3n2)cc1	20.5
CCOC(=O)c1cnn(-c2ccccc2)c1NC(=O)CCl	17.2
COc1ccc2[nH]c3c(NCCCOC(C)C)ncnc3c2c1	9.68
O=C(c1sc2ccccc2c1Cl)N(Cc1ccccc1)C1CCS(=O)(=O)C1 (stereo not drawn)	8.99
COc1ccc(NC(C)C(=O)N/N=C/c2c(O)ccc3ccccc23)cc1 (stereo not drawn)	19.6
COc1ccc(OCc2cc(C(=O)NCCCc3ccccc3)no2)c(Cl)c1	-6.31

SMILES	hERG current change (%, negative = inhibition) at 10uM [%]
Nn1c(SCC(=O)Nc2ccc3c(c2)OCO3)nnc1C(F)(F)F	5.02
Cc1nn(C)c(C)c1S(=O)(=O)N1CCC(C(=O)NC2CCCc3ccccc32)CC1 (stereo not drawn)	-11.2
Cc1cc(C)c2c(c1)c(C)cc1nnc(SCC(=O)c3cccs3)n12	-2.98
Br.CC1(C(=O)CSc2nc3ccccc3s2)CCC(=O)O1 (stereo not drawn)	-2.67
O=C(O)c1ccc(NS(=O)(=O)c2cc(Cl)ccc2Cl)cc1O	9.53
CCOC(=O)C(NC(=O)c1ccc(F)cc1)(Nc1nnc(C)s1)C(F)(F)F (stereo not drawn)	2.19
COc1ccccc1CNc1cncnc1	8.08
COc1ccc(Cl)cc1NC(=O)CCN1CCN(c2ccccc2C)CC1	6.79
O=C(NCCc1ccc2c(c1)OCCO2)c1cc(F)cc(F)c1	-6.1
CCOC(=O)C1C2C=CC3(CN(c4ccccc4CC)C(=O)C13)O2 (stereo not drawn)	8.46
O=C(N/N=C/c1ccsc1)c1cc(O)cc(O)c1	18.8
O=S1(=O)NC2c3ccccc3CC2O1 (stereo not drawn)	15.1
Cc1ccc(S(=O)(=O)N2CCC(NC(=O)c3ccccc3)CC2)cc1	11.7
O=C(Nc1ccc2ncccc2c1)c1ccccc1Cl	26.5
CCN1C(=O)[C@H]2[C@@H](c3ccc(Cl)cc3)N3C(=O)CN(Cc4ccccc4)C(=O)[C@@]3(C)[C@H]2C1=O	6.89
CCn1c(=S)sc2c(=O)n(-c3ccccc3)c(SC)nc21	-11.2
CCn1c(=N)c(C(=O)NCCCOC)cc2c(=O)n3cccc(C)c3nc21	-61.4
C=CCN1CN(Cc2ccco2)CNC1=S	-8.72
CCOC(=O)N1CCC(NC(=O)Cc2ccccc2)CC1	15.6
